The other results are listed elsewhere or left out. At the low end of the ranking, values are background and their order means little.

The target of the experiment is SIX1 homeodomain (reference allele) (UniProt Q15475). Nature of the experiment: universal protein binding microarray. The conditions noted are these: Universal all-10-mer PBM (8x60K, AMADID 030236), 300 nM GST-tagged protein, Alexa Fluor 488 anti-GST; buffer, salt, pH and temperature not stated; high values mean tight binding; most listed sequences are background and not binding sites; double strand, one strand shown.
In the case of ATTCAACC, the binding signal came out at 0.0227 E-score.
GCCTTTCA: the binding signal stood at 0.0386 E-score.
Consider CTTGGACC, for which the binding signal was -0.0685 E-score.
Then ACCCGCTA, with -0.0737 E-score; and GAATATAA, with -0.035 E-score; and CAAAGATG, with -0.196 E-score.
Then AACAAGCA, with -0.148 E-score; and GGTTCGAC, with 0.0197 E-score; and AATAGAGG, with -0.0626 E-score.
Then AGCCTCGC, with -0.019 E-score; and GATGTATA, with 0.306 E-score; and TAACCCGA, with 0.213 E-score.
On to CGGAATTA, for which the binding signal was -0.103 E-score.
CAGTTTGG: the binding signal was -0.104 E-score.
Then AACAAGGC, with -0.27 E-score.
To AAATTATG belongs -0.21 E-score; to GATGAGAC, 0.207 E-score.
Then AAATAAGC, with -0.285 E-score; and CCCCTCTA, with 0.177 E-score; and ACTAAGAC, with -0.00729 E-score.
Consider GCTAATGA, for which the binding signal is -0.0427 E-score.
In the case of ATCAACTG, the binding signal is 0.0904 E-score.
To CTTGACAC belongs 0.244 E-score; to CCTCTCCC, 0.0415 E-score; to AAAGCGTT, -0.4 E-score.
Then ACGGAAGC, with -0.13 E-score; and TCGGCACA, with 0.126 E-score; and ACTGTGCA, with -0.0177 E-score.
To GCATGACC belongs -0.0634 E-score.
In the case of GGATGAGA, the binding signal is 0.212 E-score.
Then AAGCATCA, with 0.0863 E-score; and ACCCCGGT, with 0.138 E-score; and ACTGCCGG, with 0.0128 E-score.
Then GGGTAGGA, with 0.0984 E-score; and CAGAAATC, with -0.225 E-score; and CTCGAGCA, with -0.0823 E-score.
Then CCGTTTTC, with -0.0928 E-score.
As to CTAGCCCA, the binding signal is -0.181 E-score.
With GAAGGGAC, the binding signal was -0.157 E-score.
On to GTCTGGAA, for which the binding signal is -0.0546 E-score.
As for CGGCTGAG, the binding signal was -0.0535 E-score.
Then ACAATGGC, with -0.308 E-score.
To ACTACTGA belongs 0.0187 E-score; to GTAATAAC, -0.119 E-score.
To GTTGTACA belongs 0.0321 E-score.
For the sequence CCCTGTCC, the binding signal is -0.0634 E-score.
Then CCTCGTTA, with 0.0644 E-score; and CCGATTAG, with 0.0911 E-score.
Regarding AGCAAAGG, the binding signal was -0.0355 E-score.
Then TGTGAGAA, with 0.101 E-score.
To AAGGCACC belongs -0.225 E-score.
To ATGCTATG belongs 0.124 E-score; to CGTATCTC, 0.378 E-score; to GGTGGGCA, -0.0177 E-score.
For the sequence CCCCGTTA, the binding signal was -0.104 E-score.
For the sequence ATTATGTG, the binding signal was determined as 0.171 E-score.
To CCATGGGC belongs -0.128 E-score; to AAGAGGAG, -0.0511 E-score.
Then ACAGCTAT, with 0.0737 E-score.
To GATTAACC belongs -0.0534 E-score; to CCGGGCCA, 0.0113 E-score; to GGGCGACA, -0.185 E-score.
Take CAGGCTGC: the binding signal is -0.168 E-score.
On to ATTTGGGA, for which the binding signal is -0.127 E-score.
To ATAGATTC belongs 0.0494 E-score; to GGAGACTA, -0.0757 E-score.
To GCCCATTA belongs -0.123 E-score; to CGGATCCC, 0.399 E-score; to CCGCAGAA, -0.291 E-score.
To AGATGCCC belongs 0.0608 E-score.
Regarding GCCCCACA, the binding signal is -0.104 E-score.
Regarding AAAGCTTC, the binding signal was -0.276 E-score.
Then CTGATCTC, with 0.312 E-score; and AGGTAGCA, with -0.0857 E-score; and ATGGGTCG, with 0.0494 E-score.
Then ACCATATA, with 0.274 E-score.
Then ATCCAGGA, with 0.141 E-score.
Turning to AGGACTCC, the binding signal is -0.0709 E-score.
Then CCGTCGGC, with -0.179 E-score.
In the case of GGCCCGTA, the binding signal is -0.0756 E-score.
Then ATCATGAA, with 0.052 E-score.
Then CCTGGCCG, with -0.184 E-score.
To TCGCAAGA belongs -0.0336 E-score; to AAGCTATG, 0.0235 E-score.
Consider ATCACTCA, for which the binding signal came to 0.335 E-score.
Consider AGAGATGA, for which the binding signal came out at 0.0527 E-score.
Turning to ACACCGAT, the binding signal came to 0.362 E-score.
To GAGCTGGC belongs -0.208 E-score; to CGCGTGGC, -0.148 E-score; to CAACCACA, -0.142 E-score.
With CCATCACC, the binding signal was -0.00905 E-score.
To ACCAGCTC belongs 0.118 E-score; to GAACTCTC, -0.322 E-score.
To CGTCCAGC belongs -0.239 E-score.
To ACCCGAAA belongs -0.119 E-score; to AGTTAGGA, 0.0409 E-score.
Consider CTTCTTCA, for which the binding signal is -0.121 E-score.
Then GACGCTGC, with -0.314 E-score; and CGATGAGA, with 0.191 E-score.
For the sequence AAAGCCTA, the binding signal is -0.143 E-score.
To CCTATCTC belongs 0.227 E-score.
Regarding AGTGCGAG, the binding signal was -0.12 E-score.
To CACCCTCC belongs 0.0223 E-score; to CGCAACCA, -0.127 E-score; to CGTTTCAC, -0.0955 E-score.
To AAAGGCAG belongs -0.112 E-score.
For AGTCTGAA, the binding signal was -0.183 E-score.
AGCAGTGC: the binding signal was -0.154 E-score.
To CACATCTA belongs 0.0201 E-score; to CCAGCTGC, -0.1 E-score.
Then AGTCGTAT, with 0.221 E-score; and AACTCTTC, with 0.00153 E-score; and AGCGTGTC, with -0.017 E-score.
As to CCAACTGG, the binding signal is -0.075 E-score.
Then GACGTAGA, with -0.148 E-score; and ATAGGCGC, with 0.0386 E-score; and GCATTCAA, with -0.0184 E-score.
To ATGTCCCC belongs -0.134 E-score.
To AAGTAATA belongs 0.111 E-score; to AAAAGGAA, -0.078 E-score; to AATTAGCC, -0.0433 E-score.
Regarding ACAAGACC, the binding signal was -0.174 E-score.
As to AGGAAACC, the binding signal was -0.15 E-score.
On to AGTAGGAT, for which the binding signal came to 0.202 E-score.
Then GACCCTTA, with -0.0114 E-score; and AAAGCCTC, with -0.223 E-score.
Then GAGATACC, with 0.441 E-score.
To CCCCAATC belongs 0.148 E-score.
With ATATTACG, the binding signal came out at 0.159 E-score.
Then CCAAGTTC, with -0.216 E-score; and GTCAATCA, with -0.142 E-score.
In the case of ACTAATTG, the binding signal was -0.033 E-score.
Then ACCTCTCC, with -0.00766 E-score; and ACAGTCCC, with -0.134 E-score.
Then AGTAAGAG, with -0.145 E-score; and GACCATCC, with -0.0836 E-score.
As to CACAGTCG, the binding signal is -0.146 E-score.
To GTGCGTAA belongs -0.136 E-score; to GAGGATAC, 0.403 E-score; to ACATACTG, 0.06 E-score.
Then AAAGCGTG, with -0.256 E-score; and ACGCGCTG, with -0.164 E-score.
To AAGCGGAG belongs -0.128 E-score.
On to CCATCAGG, for which the binding signal is -0.0931 E-score.
Then AGTACTGC, with -0.152 E-score; and AAACTGCA, with -0.227 E-score.
ATACACGC: the binding signal was found to be 0.328 E-score.
Then AAGGATAC, with 0.405 E-score; and AGGGAGAT, with 0.268 E-score; and CAAGTTAA, with -0.201 E-score.
To AGTATTAG belongs 0.301 E-score; to GAACGGCA, -0.158 E-score.
To CACGGGAC belongs -0.159 E-score.
Regarding GTAGAATA, the binding signal was 0.125 E-score.
To CAGAATAG belongs 0.00916 E-score; to ATCCGAGC, 0.24 E-score; to CATAAAAC, -0.157 E-score.
Then CGATTCCG, with -0.0104 E-score.
To ACCCCCAG belongs 0.127 E-score; to TAGATCCA, 0.227 E-score.
On to CAAGGTGC, for which the binding signal was -0.0768 E-score.
With AGTTTGTG, the binding signal is -0.014 E-score.
Then CATAAAAA, with -0.182 E-score; and CCAACGAA, with -0.195 E-score.
Then GCCTAGAA, with -0.0991 E-score; and AAGGGGGA, with 0.125 E-score; and ATTTCGAG, with -0.114 E-score.
Take AGGTGCGA: the binding signal was -0.062 E-score.
Consider GACTTAGA, for which the binding signal is -0.251 E-score.
CATTACAA: the binding signal is -0.138 E-score.
To AACGGGAT belongs 0.243 E-score.
ATATTTAG: the binding signal is 0.118 E-score.

These data come from PMC10668032.
